From publication PMC4336329 (PLoS ONE, 2015)
The whole screen tested about 310,000 compounds, of which about 14,000 (4.5%) showed an effect of 50% or more. Effects have a minus sign here. Some of the results follow.

Each compound was assayed against human ether-à-go-go-related gene (hERG) potassium channel (human, UniProt Q12809) (assay: primary screen, population patch clamp on CHO cells stably expressing hERG).
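Also: peak tail current of the secondary pulse compared with the same well before compound.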

Chain of human ether-à-go-go-related gene (hERG) potassium channel (Q12809 whole entry, looked up): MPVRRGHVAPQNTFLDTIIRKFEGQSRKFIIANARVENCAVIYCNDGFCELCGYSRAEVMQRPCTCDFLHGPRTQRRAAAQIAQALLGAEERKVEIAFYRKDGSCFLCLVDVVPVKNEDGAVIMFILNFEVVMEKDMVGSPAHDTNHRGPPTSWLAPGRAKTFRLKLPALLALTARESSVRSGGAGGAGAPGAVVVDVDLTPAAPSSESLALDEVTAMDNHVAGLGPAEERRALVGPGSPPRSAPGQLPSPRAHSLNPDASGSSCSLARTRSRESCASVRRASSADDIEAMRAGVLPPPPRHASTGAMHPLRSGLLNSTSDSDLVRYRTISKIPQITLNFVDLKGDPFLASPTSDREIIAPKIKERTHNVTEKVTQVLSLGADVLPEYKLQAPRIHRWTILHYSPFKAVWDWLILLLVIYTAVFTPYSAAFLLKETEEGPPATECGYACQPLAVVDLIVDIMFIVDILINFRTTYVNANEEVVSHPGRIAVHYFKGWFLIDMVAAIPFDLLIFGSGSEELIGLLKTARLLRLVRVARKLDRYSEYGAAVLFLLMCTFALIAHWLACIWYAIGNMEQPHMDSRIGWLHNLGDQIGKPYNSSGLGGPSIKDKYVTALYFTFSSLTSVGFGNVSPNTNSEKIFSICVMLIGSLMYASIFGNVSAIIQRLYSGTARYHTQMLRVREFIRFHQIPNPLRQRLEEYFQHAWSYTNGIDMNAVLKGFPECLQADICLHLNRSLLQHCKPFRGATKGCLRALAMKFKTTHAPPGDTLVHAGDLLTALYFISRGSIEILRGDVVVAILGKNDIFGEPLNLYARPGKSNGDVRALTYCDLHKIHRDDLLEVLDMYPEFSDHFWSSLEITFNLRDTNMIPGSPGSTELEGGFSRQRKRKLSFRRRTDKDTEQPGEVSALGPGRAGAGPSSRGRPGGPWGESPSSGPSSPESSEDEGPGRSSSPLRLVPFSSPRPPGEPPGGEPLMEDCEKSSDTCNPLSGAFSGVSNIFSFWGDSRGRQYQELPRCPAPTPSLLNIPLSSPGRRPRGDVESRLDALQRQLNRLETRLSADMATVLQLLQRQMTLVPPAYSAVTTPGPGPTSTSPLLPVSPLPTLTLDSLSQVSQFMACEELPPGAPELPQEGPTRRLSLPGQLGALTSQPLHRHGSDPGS

Row | Structure (SMILES) | hERG current change (%, negative = inhibition) at 10uM [%]
1 | CCOc1ccc(/C(O)=C/C(=O)C(=O)Nc2ccc(S(=O)(=O)NC(C)=O)cc2)cc1 | 16.9
2 | CN1C(=O)C(=O)/C(=C(/O)c2ccc(Br)cc2)C1c1ccccc1F (stereo not drawn) | 8.71
3 | C(#CCN1CCOCC1)COC(c1ccccc1)c1ccccc1.Cl | 8.73
4 | C[C@H](NC(=O)N1CCn2c1nc1ccccc12)C(=O)NCc1ccco1 | -10.6
5 | CCOC(=O)c1csc(NC(=O)C2CCCCC2)n1 | -0.161
6 | Cc1ccc(C(=O)NC2CCc3ccccc3C2=O)cc1 (stereo not drawn) | -8.68
7 | CCOc1ncccc1C(=O)OCC(=O)c1cc(OC)ccc1OC | -37.5
8 | O=C(NCCCn1ccnc1)c1cn(-c2ccccc2)nc1-c1ccc(F)cc1 | -64
9 | CCOC(=O)COc1cc(-n2c(=S)[nH]c3ccccc3c2=O)c(Cl)cc1Cl | -3.27
10 | C/C(N=Nc1nc2ccccc2s1)=N\Nc1ccccc1O | 9.5
11 | Cc1cccc(C(=O)NCCN2CCCC2)c1.Cl | -0.337
12 | O=C(CCc1nnc(CCCCc2ccccc2)o1)NCc1cc(F)ccc1F | -33.9
13 | C=CCc1cccc2cc(C(=O)Nc3ccc(CC(=O)O)cc3)c(=O)oc12 | 8.33
14 | COc1ccc(/C=C2\SC(=NCc3ccccc3)NC2=O)cc1 | -3.64
15 | Cc1ccc(S(=O)(=O)NC2CC(C)(C)NC(C)(C)C2)c(C)c1C | 3.07
16 | CN(CC(=O)NCCCN1CCOCC1)S(=O)(=O)c1ccc(Br)cc1 | -18.9
17 | Oc1[nH]c2ccccc2c1N=Nc1cccc(Cl)c1 | 16.5
18 | CC1(C)C(=O)N(c2ccccc2)C(=O)c2ccccc21 | 9.68
19 | O=C(CSc1ccc(-c2ccco2)nn1)Nc1ccccc1 | -47.6

Row | Structure (SMILES) | hERG current change (%, negative = inhibition) at 10uM [%]
20 | Cc1cccc(NC(=O)Nc2cc(C)cc(C)n2)c1 | 11.7
21 | Cc1cc(C(=O)COc2ccc(Br)cc2F)c(C)n1C1CC1 | -9.63
22 | COc1cc(NC(=O)Nc2cccc3cccnc23)cc(OC)c1OC | -1.6
23 | CCOC(=O)N1CCN(C(=O)Cn2ccc3ccccc3c2=O)CC1 | -2.48
24 | O=c1cc(NS(=O)(=O)c2ccccc2)nc(SCc2ccc(Cl)cc2)[nH]1 | 1.17
25 | CCC(c1nnnn1CCc1ccccc1)N(Cc1ccco1)Cc1cc2cc(C)cc(C)c2[nH]c1=O (stereo not drawn) | 2.79
26 | CCOc1ccc(NC(=S)N(CCc2c(C)[nH]c3ccccc23)Cc2ccco2)cc1 | 2.6
27 | Clc1ccc(-c2nnc3sc(Cc4cccs4)nn23)c(Cl)c1 | -55.7
28 | COc1ccc(C(=O)CCC(=O)O)c(C)c1 | 6.08
29 | O=C(CCCN1C(=O)c2ccccc2C1=O)NCCCn1ccnc1 | 13.4
30 | Cc1ccccc1NC(=O)CSc1nnc(Cc2ccccc2)o1 | -12.6
31 | O=C(NCc1cccnc1)C(=O)NCC1OCCN1S(=O)(=O)c1ccc(F)cc1 (stereo not drawn) | 6.16
32 | O=C(CS(=O)(=O)c1cn(Cc2ccc(F)cc2)c2ccccc12)N1CCCCC1 | -0.405
33 | Cc1cc(C(=O)NNC(=S)NC(C)c2ccccc2)c2ccccc2n1 (stereo not drawn) | 14.6
34 | CSc1nnc2c(n1)OC=Nc1ccc(Br)cc1-2 | -11.7
35 | CNCc1ccccc1Sc1ccc(OC)cc1.Cl | -30.4
36 | CCN(CC)CCOC(=O)c1ccc(NC(=O)CCCN2C(=O)S/C(=C/c3ccc(OC)cc3)C2=S)cc1 | 29.5
37 | O=S(=O)(c1cccc2nsnc12)N1CCN(c2ccccc2F)CC1 | 13.5
38 | O=C(Nc1ccc(OC(F)F)c(Cl)c1)C(c1ccccc1)c1ccccc1 | 14.9

Row | Structure (SMILES) | hERG current change (%, negative = inhibition) at 10uM [%]
39 | O=C(Nc1ccc(S(=O)(=O)N2CCCCC2c2cccnc2)cc1)c1ccccc1F (stereo not drawn) | 0.959
40 | CC(OC(=O)C1CCCCC1)C(=O)Nc1cccc(Cl)c1 (stereo not drawn) | -14.7
41 | COc1ccccc1-n1nnnc1SCC(=O)Nc1ccccn1 | -4.3
42 | Cc1ccc(C)c(OCCC(=O)OCC(=O)N(C)c2c(N)n(Cc3ccccc3)c(=O)[nH]c2=O)c1 | -10.2
43 | COc1ccc(CCNC(=O)COc2ccc(S(=O)(=O)NCC(C)C)cc2Cl)cc1OC | -8.83
44 | COc1ccc(NC(=O)Nc2c(C)n(-c3ccccc3)c(=O)n2C)cc1OC | 0.0287
45 | O=C(NCC1CC1)c1ccc(Oc2cc(Cl)cc(Cl)c2)o1 | -33.7
46 | CCOP(=O)(OCC)C(Nc1cccc([N+](=O)[O-])c1)c1ccc(N(C)C)cc1 (stereo not drawn) | -7.39
47 | COc1ccc(CCNC(=O)Cn2c(=O)oc3ccccc32)cc1OC | -1.88
48 | Cc1c(C(=O)N2CCCC2)c(S(=O)(=O)NCC(C)c2ccccc2)c(C)n1C (stereo not drawn) | 12.7
49 | Cc1nn(-c2ccccc2)c2[nH]c(=O)c(CNc3ccc4c(c3)OCCO4)cc12 | -3.56
50 | O=C(CN1C(=O)COc2ccccc21)N(Cc1cccnc1)Cc1ccccc1F | -26.6
51 | COc1ccc(/C(C)=N\Nc2nc(-c3ccccc3)cc(=O)[nH]2)cc1 | 12.7
52 | COC(=O)c1ccc(C)c(N(CCO)CCO)c1 | -9.7
53 | C=CCn1cnc2c(NCc3ccccc3)ncnc21 | 7.58
54 | CC(C)N1C(=O)C2C(C(=O)NCc3ccccc3)C3C=CC2(O3)C1C(=O)NC(C)(C)C (stereo not drawn) | 12.3
55 | O=C1COc2cccnc2N1 | 5.96
56 | Cc1cc2c(cc1S(=O)(=O)NCc1ccc(Cl)cc1)OCC(=O)N2 | -57.9
57 | Cc1ccccc1OCCNC(=O)/C=C/c1ccccc1 | -8.42
